The other results are listed elsewhere or left out.
Key:
Assay in all cases: glycan array binding signal (z-score within array); higher = stronger binding
Conditions in all cases: glycan notation: IUPAC condensed, linker removed; mutation: H262T
[1] = target: GlcNAc(b1-3)Gal(b1-3)GalNAc
Summary of the method: (§1)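 The binding signal is a Z-score computed within each array. Data were drawn from 3228 arrays in the Consortium for Functional Glycomics database, restricted to those with a known protein sequence. Scores were averaged over arrays of the same protein sequence at different concentrations or buffers, and over linkers, and negative values can be taken as non-binding.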

GlcNAc(b1-3)Gal(b1-4)Glc = target: GlcNAc(b1-3)Gal(b1-4)Glc
Summary of the method: as §1

[2] = target: GlcNAc(b1-3)Gal(b1-4)GlcNAc
Summary of the method: as §1

[3] = target: GlcNAc(b1-3)Gal(b1-4)GlcNAc(b1-2)Man(a1-3)[GlcNAc(b1-3)Gal(b1-4)GlcNAc(b1-2)Man(a1-6)]Man(b1-4)GlcNAc(b1-4)GlcNAc
Summary of the method: as §1

[4] = target: GlcNAc(b1-3)Gal(b1-4)GlcNAc(b1-2)Man(a1-3)[GlcNAc(b1-3)Gal(b1-4)GlcNAc(b1-2)Man(a1-6)]Man(b1-4)GlcNAc(b1-4)[Fuc(a1-6)]GlcNAc
Summary of the method: as §1

[5] = target: GlcNAc(b1-3)Gal(b1-4)GlcNAc(b1-2)[GlcNAc(b1-3)Gal(b1-4)GlcNAc(b1-6)]Man(a1-6)[GlcNAc(b1-3)Gal(b1-4)GlcNAc(b1-2)Man(a1-3)]Man(b1-4)GlcNAc(b1-4)GlcNAc
Summary of the method: as §1

[6] = target: GlcNAc(b1-3)Gal(b1-4)GlcNAc(b1-3)Gal(b1-4)GlcNAc
Summary of the method: as §1

[7] = target: GlcNAc(b1-3)Gal(b1-4)GlcNAc(b1-3)Gal(b1-4)GlcNAc(b1-2)Man(a1-3)[GlcNAc(b1-3)Gal(b1-4)GlcNAc(b1-3)Gal(b1-4)GlcNAc(b1-2)Man(a1-6)]Man(b1-4)GlcNAc(b1-4)GlcNAc
Summary of the method: as §1

[8] = target: GlcNAc(b1-3)Gal(b1-4)GlcNAc(b1-3)Gal(b1-4)GlcNAc(b1-2)Man(a1-3)[GlcNAc(b1-3)Gal(b1-4)GlcNAc(b1-3)Gal(b1-4)GlcNAc(b1-2)Man(a1-6)]Man(b1-4)GlcNAc(b1-4)[Fuc(a1-6)]GlcNAc
Summary of the method: as §1

[9] = target: GlcNAc(b1-3)Gal(b1-4)GlcNAc(b1-3)Gal(b1-4)GlcNAc(b1-2)[GlcNAc(b1-3)Gal(b1-4)GlcNAc(b1-3)Gal(b1-4)GlcNAc(b1-6)]Man(a1-6)[GlcNAc(b1-3)Gal(b1-4)GlcNAc(b1-3)Gal(b1-4)GlcNAc(b1-2)Man(a1-3)]Man(b1-4)GlcNAc(b1-4)[Fuc(a1-6)]GlcNAc
Summary of the method: as §1

[10] = target: GlcNAc(b1-3)Gal(b1-4)GlcNAc(b1-3)Gal(b1-4)GlcNAc(b1-3)Gal(b1-4)GlcNAc(b1-2)Man(a1-3)[GlcNAc(b1-3)Gal(b1-4)GlcNAc(b1-3)Gal(b1-4)GlcNAc(b1-3)Gal(b1-4)GlcNAc(b1-2)Man(a1-6)]Man(b1-4)GlcNAc(b1-4)GlcNAc
Summary of the method: as §1

[11] = target: GlcNAc(b1-3)Gal(b1-4)GlcNAc(b1-3)Gal(b1-4)GlcNAc(b1-3)Gal(b1-4)GlcNAc(b1-2)Man(a1-3)[GlcNAc(b1-3)Gal(b1-4)GlcNAc(b1-3)Gal(b1-4)GlcNAc(b1-3)Gal(b1-4)GlcNAc(b1-2)Man(a1-6)]Man(b1-4)GlcNAc(b1-4)[Fuc(a1-6)]GlcNAc
Summary of the method: as §1

[12] = target: GlcNAc(b1-3)Gal(b1-4)GlcNAc(b1-3)Gal(b1-4)GlcNAc(b1-3)Gal(b1-4)GlcNAc(b1-2)[GlcNAc(b1-3)Gal(b1-4)GlcNAc(b1-3)Gal(b1-4)GlcNAc(b1-3)Gal(b1-4)GlcNAc(b1-6)]Man(a1-6)[GlcNAc(b1-3)Gal(b1-4)GlcNAc(b1-3)Gal(b1-4)GlcNAc(b1-3)Gal(b1-4)GlcNAc(b1-2)Man(a1-3)]Man(b1-4)GlcNAc(b1-4)[Fuc(a1-6)]GlcNAc
Summary of the method: as §1

[13] = target: GlcNAc(b1-3)Gal(b1-4)GlcNAc(b1-3)Gal(b1-4)GlcNAc(b1-3)Gal(b1-4)GlcNAc(b1-3)Gal(b1-4)GlcNAc(b1-2)Man(a1-3)[GlcNAc(b1-3)Gal(b1-4)GlcNAc(b1-3)Gal(b1-4)GlcNAc(b1-3)Gal(b1-4)GlcNAc(b1-3)Gal(b1-4)GlcNAc(b1-2)Man(a1-6)]Man(b1-4)GlcNAc(b1-4)GlcNAc
Summary of the method: as §1

[14] = target: GlcNAc(b1-3)Gal(b1-4)GlcNAc(b1-3)Gal(b1-4)GlcNAc(b1-3)Gal(b1-4)GlcNAc(b1-3)Gal(b1-4)GlcNAc(b1-2)Man(a1-3)[GlcNAc(b1-3)Gal(b1-4)GlcNAc(b1-3)Gal(b1-4)GlcNAc(b1-3)Gal(b1-4)GlcNAc(b1-3)Gal(b1-4)GlcNAc(b1-2)Man(a1-6)]Man(b1-4)GlcNAc(b1-4)[Fuc(a1-6)]GlcNAc
Summary of the method: as §1

[15] = target: GlcNAc(b1-3)Gal(b1-4)GlcNAc(b1-3)Gal(b1-4)GlcNAc(b1-3)Gal(b1-4)GlcNAc(b1-3)Gal(b1-4)GlcNAc(b1-2)[GlcNAc(b1-3)Gal(b1-4)GlcNAc(b1-3)Gal(b1-4)GlcNAc(b1-3)Gal(b1-4)GlcNAc(b1-3)Gal(b1-4)GlcNAc(b1-6)]Man(a1-6)[GlcNAc(b1-3)Gal(b1-4)GlcNAc(b1-3)Gal(b1-4)GlcNAc(b1-3)Gal(b1-4)GlcNAc(b1-3)Gal(b1-4)GlcNAc(b1-2)Man(a1-3)]Man(b1-4)GlcNAc(b1-4)[Fuc(a1-6)]GlcNAc
Summary of the method: as §1

[16] = target: GlcNAc(b1-3)Gal(b1-4)GlcNAc(b1-3)Gal(b1-4)GlcNAc(b1-3)GalNAc
Summary of the method: as §1

[17] = target: GlcNAc(b1-3)Gal(b1-4)GlcNAc(b1-3)GalNAc
Summary of the method: as §1

[18] = target: GlcNAc(b1-3)Gal(b1-4)GlcNAc(b1-3)[GlcNAc(b1-3)Gal(b1-4)GlcNAc(b1-3)]GalNAc
Summary of the method: as §1

[19] = target: GlcNAc(b1-3)Gal(b1-4)GlcNAc(b1-6)[Gal(b1-3)]GalNAc
Summary of the method: as §1

[20] = target: GlcNAc(b1-3)Gal(b1-4)GlcNAc(b1-6)[GlcNAc(b1-3)Gal(b1-3)]GalNAc
Summary of the method: as §1

[21] = target: GlcNAc(b1-3)Gal(b1-4)GlcNAc(b1-6)[GlcNAc(b1-3)]Gal(b1-4)GlcNAc
Summary of the method: as §1

GlcNAc(b1-3)GalNAc = target: GlcNAc(b1-3)GalNAc
Summary of the method: as §1

GlcNAc(b1-3)Man = target: GlcNAc(b1-3)Man
Summary of the method: as §1

[22] = target: GlcNAc(b1-3)[GlcNAc(b1-4)][GlcNAc(b1-6)]GlcNAc
Summary of the method: as §1

[23] = target: GlcNAc(b1-3)[GlcNAc(b1-6)]Gal(b1-4)GlcNAc
Summary of the method: as §1

[24] = target: GlcNAc(b1-3)[GlcNAc(b1-6)]GalNAc
Summary of the method: as §1

[25] = target: GlcNAc(b1-4)Gal(b1-4)GlcNAc
Summary of the method: as §1

GlcNAc(b1-4)GlcNAc = target: GlcNAc(b1-4)GlcNAc
Summary of the method: as §1

[26] = target: GlcNAc(b1-4)GlcNAc(b1-4)GlcNAc
Summary of the method: as §1

[27] = target: GlcNAc(b1-4)GlcNAc(b1-4)GlcNAc(b1-4)GlcNAc(b1-4)GlcNAc
Summary of the method: as §1

[28] = target: GlcNAc(b1-4)GlcNAc(b1-4)GlcNAc(b1-4)GlcNAc(b1-4)GlcNAc(b1-4)GlcNAc
Summary of the method: as §1

[29] = target: GlcNAc(b1-4)[GlcNAc(b1-6)]GalNAc
Summary of the method: as §1

[30] = target: GlcNAc(b1-6)Gal(b1-4)GlcNAc
Summary of the method: as §1

GlcNAc(b1-6)GalNAc = target: GlcNAc(b1-6)GalNAc
Summary of the method: as §1

[31] = target: GlcNAc6S(b1-3)Gal(b1-4)GlcNAc
Summary of the method: as §1

Kdn(a2-3)Gal(b1-3)GalNAc = target: Kdn(a2-3)Gal(b1-3)GalNAc
Summary of the method: as §1

Kdn(a2-3)Gal(b1-3)GlcNAc = target: Kdn(a2-3)Gal(b1-3)GlcNAc
Summary of the method: as §1

Kdn(a2-3)Gal(b1-4)Glc = target: Kdn(a2-3)Gal(b1-4)Glc
Summary of the method: as §1

Kdn(a2-3)Gal(b1-4)GlcNAc = target: Kdn(a2-3)Gal(b1-4)GlcNAc
Summary of the method: as §1

[32] = target: Kdn(a2-3)Gal(b1-4)[Fuc(a1-3)]GlcNAc
Summary of the method: as §1

Kdn(a2-6)Gal(b1-4)GlcNAc = target: Kdn(a2-6)Gal(b1-4)GlcNAc
Summary of the method: as §1

[33] = target: Man(a1-2)Man(a1-2)Man(a1-3)Man
Summary of the method: as §1

[34] = target: Man(a1-2)Man(a1-2)Man(a1-6)[Man(a1-3)]Man
Summary of the method: as §1

Man(a1-2)Man(a1-3)Man = target: Man(a1-2)Man(a1-3)Man
Summary of the method: as §1

B1: MGL6A (Homo sapiens) (protein)
chain: MTRTYENFQYLENKVKVQGFKNGPLPLQSLLQRLCSGPCHLLLSLGLGLLLLVIICVVGFQNSKFQRDLVTLRTDFSNFTSNTVAEIQALTSQGSSLEETIASLKAEVEGFKQERQAVHSEMLLRVQQLVQDLKKLTCQVATLNNNGEEASTEGTCCPVNWVEHQDSCYWFSHSGMSWAEAEKYCQLKNAHLVVINSREEQNFVQKYLGSAYTWMGLSDPEGAWKWVDGTDYATGFQNWKPGQPDDWQGHGLGGGEDCAHFTPDGRWNDDVCQRPYHWVCEAGLGQTSQESH
glycan array binding signal (z-score) [1]: -0.166
glycan array binding signal (z-score) (GlcNAc(b1-3)Gal(b1-4)Glc): -0.172
glycan array binding signal (z-score) [2]: -0.176
glycan array binding signal (z-score) [3]: -0.174
glycan array binding signal (z-score) [4]: -0.168
glycan array binding signal (z-score) [5]: -0.091
glycan array binding signal (z-score) [6]: -0.179
glycan array binding signal (z-score) [7]: -0.171
glycan array binding signal (z-score) [8]: -0.168
glycan array binding signal (z-score) [9]: -0.164
glycan array binding signal (z-score) [10]: -0.164
glycan array binding signal (z-score) [11]: -0.166
glycan array binding signal (z-score) [12]: -0.162
glycan array binding signal (z-score) [13]: -0.173
glycan array binding signal (z-score) [14]: -0.15
glycan array binding signal (z-score) [15]: -0.153
glycan array binding signal (z-score) [16]: -0.166
glycan array binding signal (z-score) [17]: -0.169
glycan array binding signal (z-score) [18]: -0.176
glycan array binding signal (z-score) [19]: -0.176
glycan array binding signal (z-score) [20]: -0.174
glycan array binding signal (z-score) [21]: -0.177
glycan array binding signal (z-score) (GlcNAc(b1-3)GalNAc): -0.151
glycan array binding signal (z-score) (GlcNAc(b1-3)Man): -0.177
glycan array binding signal (z-score) [22]: -0.175
glycan array binding signal (z-score) [23]: -0.173
glycan array binding signal (z-score) [24]: -0.174
glycan array binding signal (z-score) [25]: -0.171
glycan array binding signal (z-score) (GlcNAc(b1-4)GlcNAc): -0.174
glycan array binding signal (z-score) [26]: -0.175
glycan array binding signal (z-score) [27]: -0.174
glycan array binding signal (z-score) [28]: -0.175
glycan array binding signal (z-score) [29]: -0.174
glycan array binding signal (z-score) [30]: -0.173
glycan array binding signal (z-score) (GlcNAc(b1-6)GalNAc): 5.17
glycan array binding signal (z-score) [31]: -0.172
glycan array binding signal (z-score) (Kdn(a2-3)Gal(b1-3)GalNAc): -0.176
glycan array binding signal (z-score) (Kdn(a2-3)Gal(b1-3)GlcNAc): -0.173
glycan array binding signal (z-score) (Kdn(a2-3)Gal(b1-4)Glc): -0.173
glycan array binding signal (z-score) (Kdn(a2-3)Gal(b1-4)GlcNAc): -0.161
glycan array binding signal (z-score) [32]: -0.174
glycan array binding signal (z-score) (Kdn(a2-6)Gal(b1-4)GlcNAc): -0.175
glycan array binding signal (z-score) [33]: -0.176
glycan array binding signal (z-score) [34]: -0.177
glycan array binding signal (z-score) (Man(a1-2)Man(a1-3)Man): -0.173
